The whole screen tested about 310,000 compounds, of which about 14,000 (4.5%) showed an effect of 50% or more. The effect is printed as a negative number. Some of the results follow.
Biological target: human ether-à-go-go-related gene (hERG) potassium channel (human, UniProt Q12809)
Experiment: primary screen, population patch clamp on CHO cells stably expressing hERG
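Note: peak tail current of the secondary pulse compared with the same well before compound.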

human ether-à-go-go-related gene (hERG) potassium channel, sequence (Q12809 whole entry, looked up): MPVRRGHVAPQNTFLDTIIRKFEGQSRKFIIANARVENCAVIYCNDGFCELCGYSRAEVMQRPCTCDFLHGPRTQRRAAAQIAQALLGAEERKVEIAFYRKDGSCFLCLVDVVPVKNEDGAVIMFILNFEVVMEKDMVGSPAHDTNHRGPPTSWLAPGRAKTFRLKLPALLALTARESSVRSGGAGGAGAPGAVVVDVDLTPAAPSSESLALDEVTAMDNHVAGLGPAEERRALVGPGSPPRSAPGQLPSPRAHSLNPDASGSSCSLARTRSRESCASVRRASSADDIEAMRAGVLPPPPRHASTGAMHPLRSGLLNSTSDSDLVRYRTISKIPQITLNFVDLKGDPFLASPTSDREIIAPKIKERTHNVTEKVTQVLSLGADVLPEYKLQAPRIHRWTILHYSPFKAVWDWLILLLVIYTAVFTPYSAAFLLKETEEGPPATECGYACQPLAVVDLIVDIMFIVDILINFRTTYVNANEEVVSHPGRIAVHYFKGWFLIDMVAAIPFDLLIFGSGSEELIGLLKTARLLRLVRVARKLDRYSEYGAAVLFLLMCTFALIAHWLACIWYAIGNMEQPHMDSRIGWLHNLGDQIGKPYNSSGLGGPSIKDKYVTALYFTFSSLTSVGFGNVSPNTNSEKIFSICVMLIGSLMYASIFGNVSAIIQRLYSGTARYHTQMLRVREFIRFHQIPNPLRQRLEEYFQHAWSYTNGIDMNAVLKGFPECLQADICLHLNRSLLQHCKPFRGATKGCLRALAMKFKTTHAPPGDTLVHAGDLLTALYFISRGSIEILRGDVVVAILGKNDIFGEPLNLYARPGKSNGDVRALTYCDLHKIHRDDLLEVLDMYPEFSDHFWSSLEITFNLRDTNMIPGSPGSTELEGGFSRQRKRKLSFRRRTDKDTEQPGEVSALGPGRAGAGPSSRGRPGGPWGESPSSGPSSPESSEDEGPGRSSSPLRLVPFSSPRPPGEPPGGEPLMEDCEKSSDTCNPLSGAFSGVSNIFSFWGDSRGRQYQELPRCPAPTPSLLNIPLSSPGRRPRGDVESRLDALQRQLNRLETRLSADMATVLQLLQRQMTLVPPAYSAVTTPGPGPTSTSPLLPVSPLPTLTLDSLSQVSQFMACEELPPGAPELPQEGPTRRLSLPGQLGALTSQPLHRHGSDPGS

Compound | hERG current change (%, negative = inhibition) at 10uM
Cc1ccc(NC(=O)c2cc(S(=O)(=O)NCCC3=CCCCC3)ccc2F)cc1F | 9.39%
COc1ccc(NC(=O)CS(=O)c2ccc(Br)cc2)cc1 (stereo not drawn) | 6.92%
CC(=O)N1CCc2cc(S(=O)(=O)NCCC(=O)NC3CCCc4ccccc43)ccc21 (stereo not drawn) | 2.54%
Cc1ccc(C(=O)NC(C(=O)Nc2ccccc2)c2ccccc2)cc1 (stereo not drawn) | 19.7%
O=C(Cn1c(O)c(/C=C2\C=Nc3ccc(Br)cc32)sc1=O)N1CCCC1 | -4.32%
COc1ccc2[nH]c3ccc(OC)cc3c2c1 | 3.01%
COc1ccc(OCC(=O)Nc2nc3ccc(NC(C)=O)cc3s2)cc1 | 9.99%
c1ccc2c(-c3csc(-c4ccncc4)n3)c[nH]c2c1 | 14%
Cc1ccc(-n2c(=O)[nH]c3c(C(N)=O)nc(-c4ccc(C)o4)nc32)cc1 | 14.7%
O=C(O)c1cccc(N2C(=O)c3ccc4c5c(ccc(c35)C2=O)C(=O)N(c2cccc(C(=O)O)c2)C4=O)c1 | -10.5%
CCOC(=O)Cn1c(S(=O)(=O)Cc2ccccc2)nc2ccccc21 | -17.6%
CCC(=O)c1ccc2c(c1)N(CCCN(C)C)c1ccccc1S2.Cl | -63.5%
CC(C)Cc1nc2oc3c(NCC(C)O)ncnc3c2c2c1CCCC2 (stereo not drawn) | -7.54%
O=C1c2cc(F)ccc2-n2c1nc1ccccc1c2=O | -7.95%
COc1cccc(/C=N/n2cnnc2)c1OCc1ccccc1 | -2.39%
Fc1ccc(/C=N/NC(=S)Nc2cccnc2)cc1 | 0.793%
CCOc1ccc(S(=O)(=O)N2CCCC(C(=O)NCc3ccccn3)C2)cc1C (stereo not drawn) | -17.4%
O=C(Nc1nc(-c2ccccc2)cs1)c1ccc(N2CCOCC2)c([N+](=O)[O-])c1 | 3.12%
O=C(CC1C(=O)NCCN1CC1CCCCC1)NCc1ccccc1Cl (stereo not drawn) | -5.9%
COc1cc(/C=N/Nc2ccc(Cl)c(C(=O)O)c2)ccc1OC(=O)c1ccco1 | 6.99%
Cc1cc(=O)[nH]c(N/N=C/c2ccc(Br)s2)n1 | -13.9%

Compound | hERG current change (%, negative = inhibition) at 10uM
O=c1ccc(-c2ccc([N+](=O)[O-])cc2)nn1-c1ccccc1 | -55%
CCC1c2ccc(C)n2CCN1C(=O)Nc1ccccc1OC (stereo not drawn) | 9.92%
C/C=C/c1ccc(OCCOc2cccc3cccnc23)c(OC)c1 | 20.3%
COc1ccc(OCCN2CCN(C3CC(=O)N(CCC(C)C)C3=O)CC2)cc1 (stereo not drawn) | -63.4%
Cc1ccc(-c2nnn(CC(=O)Nc3cccc4cccnc34)n2)o1 | -19.5%
CCCCn1c(N)c(N(Cc2ccccc2OC)C(=O)CC2OC(=O)c3ccccc32)c(=O)[nH]c1=O (stereo not drawn) | 2.32%
CC(C)CN(C(=O)COC(=O)/C=C/c1cccs1)c1c(N)n(Cc2ccccc2)c(=O)[nH]c1=O | -1.55%
CC(C)NC(=O)c1ccc(N(Cc2ccccc2)S(C)(=O)=O)cc1 | 18.2%
COc1ccc(NC(=O)[C@@H]2[C@@H]3C(=O)N(C4CCCCC4)C(=O)[C@@H]3C3c4ccccc4C=CN32)cc1 (stereo partly drawn) | -4.46%
CCN1CCC2(CCN(C(=O)c3cc(COc4cc(C)ccc4C)on3)C2)C1 (stereo not drawn) | -54.8%
C[C@@]12C(=O)N(c3ccc(F)cc3)C(=O)N1[C@@H]1c3ccccc3OC[C@@H]1[C@H]2c1ccccc1 | 8.78%
CCOc1ccc(-c2nn3c(-c4ccccc4)nnc3s2)cc1 | -9.98%
CN(Cc1nc2ccccc2n1C)c1ccccc1 | 6.41%
COc1ccc(N(C)C(=O)c2oc(=O)c3ccccc3c2-c2ccccc2)c(OC)c1 | -8%
CCC1C(=O)c2ccccc2N(C)C1=O (stereo not drawn) | 38.2%
CC(=O)Nc1ccc(NC(=O)C(C)OC(=O)c2ccccc2Sc2ccccc2C#N)cc1 (stereo not drawn) | -9.51%
Cc1ccc(C)c(S(=O)(=O)N2CCN(C(=O)C3CCN(c4ncnc5sc(C)c(C)c45)CC3)CC2)c1 | -13.5%
O=C(CN(c1ccccc1)S(=O)(=O)c1ccccc1[N+](=O)[O-])Nc1cccnc1 | -21.1%
COc1ccc(-c2nc(N)nc(C(F)(F)F)c2-c2cscn2)c(O)c1 | 6.72%
OC1(c2ccccc2F)CC2CCC(C1)N2CCN1CCOCC1 (stereo not drawn) | 0.373%
C=CCOC(Cn1ccnc1)c1ccc(Cl)cc1Cl (stereo not drawn) | -29.6%

Source: paper PMC4336329 (PLoS ONE, 2015)
